Laboratory results taken from PubChem BioAssay AID2100 (National Center for Advancing Translational Sciences (NCATS), 2009).
The whole screen tested about 300,000 compounds, of which about 1,200 (0.4%) were called active. The inconclusive results got no clear call from the source; some entries with a clear call stand among them for comparison. The call rests on the fitted dose curve; in most records, active means well fitted inhibition curve with a large enough effect; inconclusive means small, poorly fitted or top-dose-only effect, or another doubt; inactive means no such curve, though single readings can be large or run the other way. A potency beside an inconclusive call is a rough fit, not a confirmed value.

target: Lysosomal alpha-glucosidase (Homo sapiens) (UniProt P10253); assay: qHTS Assay for Inhibitors and Activators of Human alpha-Glucosidase Cleavage of Glycogen; details: recombinant GAA, glycogen substrate, Amplex Red glucose oxidase fluorescence; series mostly up to 76.4 µM
From the text: NIH Chemical Genomics Center [NCGC] NIH Molecular Libraries Probe Production Centers Network [MLPCN] MLPCN Grant: R03 MH084841-01 Assay Submitter (PI): Wei Zheng NCGC Assay Overview: Alpha-glucosidase is responsible for the hydrolysis of terminal, non-reducing 1,4-linked alpha-D-glucose residues, which releases alpha-D-glucose. It is a lysosomal hydrolase that is required for the degradation of a small percentage (1-3%) of cellular glycogen in humans. Deficiency of this enzyme results in glycogen-storage disease type II (GSDII), also referred to as Pompe disease, an autosomal recessive disorder. Structurally normal glycogen is accumulated in the lysosomes and cytoplasm in affected patients, primarily in muscle tissues. Excessive glycogen storage within lysosomes may interrupt normal functioning of other organelles and leads to cellular injury. In turn, this leads to enlargement and dysfunction of the entire organ involved (eg: cardiomyopathy and muscle weakness). It has been reported that the improper folding and trafficking of alpha-glucosidase resulting from genetic mutations may account for a significant number of Pompe patients. […] We optimized this alpha-glucosidase assay in 1536-well plate format for identification of novel small molecule inhibitors or activators with structures other than the sugar analogs in order to develop new pharmacological chaperones. Previous assays of alpha-Glucosidase have utilized a non-natural fluorescent substrate to probe enzyme activity. The present assay measures enzyme activity on glycogen using a coupled-assay system to glucose oxidase.
NCGC Assay Protocol Summary: This is an enzyme assay using glycogen from bovine liver (Sigma catalog #: G0885) as the substrate and recombinant human alpha-glucosidase as the enzyme preparation. Upon hydrolysis of the substrate, the glucose product can be detected using the Amplex Red Glucose Oxidase Assay Kit (Invitrogen catalog #: A22189). The product of this reaction can be read with a fluorescence plate reader with an excitation at 573 nm and an emission at 610 nm. Data were normalized to the controls for basal activity (without enzyme) and 100% activity (with enzyme). The AC50 values were determined from concentration-response data modeled with the standard Hill equation. Assay buffer for enzyme reaction: 50 mM citric acid (titrated with potassium phosphate to pH 5.0), 0.01% Tween-20 (pH 5.0 is an optimal condition for this enzyme assay) Assay buffer for Amplex Red reaction: Tris-HCl, pH 7.5 1536-well assay protocol for the alpha-glucosidase assay: (1) Add 2 ul/well alpha-glucosidase enzyme solution (4 nM final) (2) Add 23 nL compounds in DMSO solution. The final titration was 0.7 nM to 77 uM. (3) Add 1 ul of glycogen substrate solution (30 ug) (4) Incubate at 37 C for 40 min (5) Add 2 ul tris-HCl buffer with Amplex Red reagents (6) Incubate 45 min at room temperature. (7) Detect the assay plate in a ViewLux plate reader (PerkinElmer) with Ex=573 nm and Em=610nm. Keywords: Alpha-glucosidase, Pompe Disease, pharmacological chaperone, chaperone therapy, high throughput screening, alpha-glucosidase inhibitor, MLSMR, MLSCN, NIH Roadmap, qHTS and NCGC
Potency means the concentration at half of the fitted maximal effect.

Row | Structure (SMILES) | Potency
1 | CCCN1CCC(=NNc2ccc(S(=O)(=O)N(CC)CC)cc2[N+](=O)[O-])CC1 | inconclusive: 19.8 µM [inhibitor, partial curve]
2 | Oc1ccc(C2=Nn3c(nnc3-c3ccco3)SC2)cc1O | active: 15.8 µM
3 | N#CC1(C#N)CC(C=O)=C(N)C1(C#N)CC(=O)C12CC3CC(CC(C3)C1)C2 (configuration not stated) | inconclusive: 28.2 µM [inhibitor, partial curve]
4 | Cc1scc(C(=O)NNC(=S)NCC2CCCO2)c1C (configuration not stated) | inconclusive: 9.92 µM [inhibitor, partial curve]
5 | CC1CC(=O)c2c(cc3c(-c4c(O)cc(O)c5c(O)c6c(cc45)OC(C)CC6=O)c(O)cc(O)c3c2O)O1 (configuration not stated) | inconclusive: 35.5 µM [inhibitor, partial curve]
6 | COc1ccc(/C=N/NC(=S)NC2CCS(=O)(=O)C2)cc1OC (configuration not stated) | inconclusive: 28 µM [inhibitor, single point]
7 | NNC(=S)NCc1cccnc1 | inconclusive: 39.5 µM [inhibitor, single point]
8 | CC(C)CNC(=S)N1CCN(c2nc3ccccc3s2)CC1 | inconclusive: 3.52 µM [inhibitor, partial curve]
9 | COc1cccc2c1cc1c(=O)n(CC(=O)NCCCN3CCN(C)CC3)nc(C)n12 | inconclusive: 7.94 µM [inhibitor, partial curve]
10 | CC(C)CNS(=O)(=O)c1ccc2c(c1)OCCO2 | inconclusive: 100 µM [inhibitor, partial curve, poor fit]
11 | CC(C)CC(=O)N1CCN(S(=O)(=O)c2ccc(F)cc2)CC1 | inactive
12 | Cc1noc(C)c1S(=O)(=O)Nc1ccc(O)c2c(=O)cc(-c3ccccc3Cl)oc12 | inconclusive: 44.7 µM [inhibitor, single point]
13 | COc1cc(CNc2ccc(C)c(C)c2)cc(OC)c1OC | inconclusive: 39.5 µM [inhibitor, single point]
14 | Cc1onc(-c2ccccc2Cl)c1C(=O)NNC(=O)c1ccccc1F | inactive
15 | Cc1c(NC(=S)N/N=C/c2ccc(N(C)C)cc2)c(=O)n(-c2ccccc2)n1C | inconclusive: 11.2 µM [inhibitor, single point]
16 | O=C(NN=C1CCCC1)C(=O)Nc1cccc(C(F)(F)F)c1 | inconclusive: 31.6 µM [inhibitor, partial curve]
17 | CCN(CC)c1cccc(OC2=NS(=O)(=O)c3ccccc32)c1 | active: 28.2 µM
18 | O=C(N/N=C/c1ccsc1)c1ccccn1 | inconclusive: 5.01 µM [inhibitor, partial curve, poor fit]
19 | Cc1cccc(C)c1NC(=S)NCCc1ccc(O)c(O)c1 | inconclusive: 4.43 µM [inhibitor, full curve]
20 | CC1(C)CNc2cc(N)ccc2S1 | inconclusive: 28.2 µM [inhibitor, partial curve]
21 | CCOC(=O)c1nc(NNC(=O)c2ccc([N+](=O)[O-])cc2)sc1C | inconclusive: 50.1 µM [inhibitor, single point]
22 | O=S1(=O)CC=C(CSC(=S)NC2CCS(=O)(=O)C2)C1 (configuration not stated) | inconclusive: 31.4 µM [inhibitor, partial curve]
23 | COc1ccc([C@H]2[C@@H](C#N)[C@H](C#N)N3CCCN23)cc1 | inconclusive: 10 µM [inhibitor, full curve]

Row | Structure (SMILES) | Potency
24 | Oc1ccccc1N=Cc1c(O)ccc2ccccc12 | inconclusive: 3.95 µM [inhibitor, full curve]
25 | CNC(=S)NNC(=O)c1cn(C)nc1C | inconclusive: 31.6 µM [inhibitor, partial curve]
26 | Cc1nc2ccc(NC(=S)N3CCOCC3)cc2nc1C | inconclusive: 50.1 µM [inhibitor, single point]
27 | O=C1CCCC/C1=N\Nc1ccc(OCc2ccccc2)cc1 | inconclusive: 8.84 µM [inhibitor, single point]
28 | O=C(O)C(Cc1c[nH]c2ccccc12)N1CCS(=O)(=O)CC1 (configuration not stated) | inconclusive: 11.2 µM [inhibitor, partial curve]
29 | CC(/C=C/C=C/c1ccccc1)=N/NC(=O)CNc1ccc(C)cc1 | inconclusive: 28 µM [activator, single point]
30 | Cn1cc(Cl)c(-c2n[nH]c(=S)n2C2CCCCC2)n1 | inconclusive: 50.1 µM [inhibitor, single point]
31 | CN(C)c1ccc(CN(C(=O)/C=C/c2ccco2)C2CCS(=O)(=O)C2)cc1 (configuration not stated) | inconclusive: 35.5 µM [inhibitor, single point]
32 | O=S(=O)(c1ccc(NC(=S)N2CCN(c3ccc(O)cc3)CC2)cc1)N1CCOCC1 | inconclusive: 7.94 µM [inhibitor, full curve]
33 | CC1=C(C(=O)N2CCCCC2)C(c2cccs2)C2=C(CCCC2=O)N1 (configuration not stated) | inconclusive: 6.31 µM [inhibitor, full curve, poor fit]
34 | CCc1ccc(C2CC(=O)c3c([nH]c(C(=O)OCC4CCCCC4)c3C)C2)cc1 (configuration not stated) | inactive
35 | Oc1cc(-n2cccn2)c(O)cc1-n1cccn1 | inconclusive: 28.2 µM [inhibitor, single point]
36 | COn1c(=O)c(-c2cccs2)[n+]([O-])c2ccccc21 | inconclusive: 35.5 µM [inhibitor, single point]
37 | Cc1ccccc1C(=O)NN1C(=O)CSC1=S | inconclusive: 28.2 µM [inhibitor, partial curve]
38 | Cc1cccc(N(CC(=O)O)CC(=O)O)c1 | inconclusive: 11.1 µM [inhibitor, partial curve]
39 | O=c1[nH]cc(N(CCO)CCO)c(=O)[nH]1 | inconclusive: 14 µM [inhibitor, partial curve]
40 | CCN1CCN(c2cc(C)c3cc(NC(=S)N4CCCC4)ccc3n2)CC1 | inconclusive: 35.5 µM [inhibitor, single point]
41 | Fc1ccc(N/N=C/c2cccnc2)c(F)c1 | inconclusive: 12.6 µM [inhibitor, partial curve]
42 | CCCc1cc(=O)[nH]c(Nc2cccc(Cl)c2Cl)n1 | inactive
43 | Cc1ccc(N/C=C(\C#N)c2ccc(OCCCF)cc2)cc1 | inconclusive: 17.8 µM [inhibitor, partial curve]
44 | Cn1c(=O)c2c(nc(NNC(=O)C(F)(F)F)n2C)n(C)c1=O | inconclusive: 5.62 µM [inhibitor, full curve]
45 | CCOc1ccc(C(=O)CN2CCN(S(=O)(=O)c3ccc(F)cc3)CC2)cc1 | inconclusive: 44.3 µM [inhibitor, partial curve]
46 | COc1cc(C(=O)NNC(=S)NCc2ccco2)cc(OC)c1OC | inconclusive: 31.6 µM [inhibitor, single point]

Row | Structure (SMILES) | Potency
47 | CNC(=S)NNC(=O)c1c(C)nc2cc(C)ccn12 | inconclusive: 8.91 µM [inhibitor, full curve]
48 | COc1cccc(/C=N/Nc2c(Cl)cncc2Cl)c1O | inconclusive: 19.8 µM [inhibitor, single point]
49 | CCOc1cc(C2C(C(=O)OC)=C(C)NC3=C2C(=O)c2ccccc23)cc(Cl)c1O (configuration not stated) | inconclusive: 5.01 µM [inhibitor, full curve, poor fit]
50 | CCOc1ccc(C(=O)Nc2ccccc2N2CCCC2)cc1 | inconclusive: 12.6 µM [inhibitor, partial curve]
51 | Cc1ccc(-c2c[nH]c(=S)n2-c2ccccc2)cc1 | inconclusive: 39.8 µM [inhibitor, partial curve]
52 | Cc1cc(C)c2c(N)c(C(=O)NNC(=O)c3ccccc3)sc2n1 | inconclusive: 20 µM [inhibitor, partial curve, poor fit]
53 | COc1ccc(C(=O)NCCn2cc(SCC(=O)Nc3cccc(C)c3)c3ccccc32)cc1 | inactive
54 | O=C(Nc1ccn(Cc2ccccc2F)n1)c1ccc(COc2ccc(Cl)cc2Cl)o1 | inconclusive: 7.88 µM [inhibitor, full curve, poor fit]
55 | COc1ccc(-n2c(CNC(=O)COc3ccc(Cl)cc3)n[nH]c2=S)cc1 | inconclusive: 50.1 µM [inhibitor, single point]
56 | Cc1onc(C(=O)Nc2sc3c(c2C#N)CCCC3)c1[N+](=O)[O-] | inconclusive: 10 µM [inhibitor, partial curve]
57 | Cc1ccn2c(Nc3ccccc3C)c(-c3ccccn3)nc2c1 | active: 3.98 µM
58 | CCCNC(=O)c1ccc2c(=O)c(O)c(-c3ccc(Cl)c([N+](=O)[O-])c3)[nH]c2c1 | inconclusive: 14.1 µM [inhibitor, partial curve]
59 | CN1N=C(C(F)(F)F)CC1=O | inactive
60 | C/C(=N\Nc1ccccc1Cl)c1ccc(-n2ccnc2)cc1 | inconclusive: 15.8 µM [inhibitor, partial curve]
61 | Cc1ccc(Nc2nc3c([nH]2)c(=O)n(C)c(=O)n3C)cc1 | active: 19.8 µM
62 | Cc1ccc(C2C=C(c3ccc(Cl)cc3)Nc3nc(NS(=O)(=O)c4ccccc4)nn32)cc1 (configuration not stated) | inconclusive: 22.4 µM [activator, partial curve]
63 | O=C1c2[nH]nc(-c3ccccc3O)c2C(c2ccc(Cl)cc2)N1Cc1ccco1 (configuration not stated) | inactive
64 | Nc1ccccc1N=Nc1ccccc1N | inconclusive: 4.47 µM [inhibitor, full curve]
65 | CCOCCCNC(=O)NC(C)c1c(-n2cccc2)sc2c1CCN(CC)C2 (configuration not stated) | inconclusive: 39.8 µM [activator, partial curve]
66 | COc1cc(C=O)cc(Br)c1OCC(N)=O | inactive
67 | CC(C)Oc1cccc(C(=O)NC(=S)Nc2cccc(C(F)(F)F)c2)c1 | inconclusive: 28 µM [inhibitor, partial curve]
